Laboratory results: publication PMC4336329 (PLoS ONE, 2015)
Among all 310,000 compounds or so, about 2,200 (0.71%) showed an effect of 50% or more. The effect is printed as a negative number. The list shows a part of the results.

These molecules were tested against human ether-à-go-go-related gene (hERG) potassium channel (human, UniProt Q12809) (assay: primary screen, population patch clamp on CHO cells stably expressing hERG).
Sequence of human ether-à-go-go-related gene (hERG) potassium channel (Q12809 whole entry, looked up): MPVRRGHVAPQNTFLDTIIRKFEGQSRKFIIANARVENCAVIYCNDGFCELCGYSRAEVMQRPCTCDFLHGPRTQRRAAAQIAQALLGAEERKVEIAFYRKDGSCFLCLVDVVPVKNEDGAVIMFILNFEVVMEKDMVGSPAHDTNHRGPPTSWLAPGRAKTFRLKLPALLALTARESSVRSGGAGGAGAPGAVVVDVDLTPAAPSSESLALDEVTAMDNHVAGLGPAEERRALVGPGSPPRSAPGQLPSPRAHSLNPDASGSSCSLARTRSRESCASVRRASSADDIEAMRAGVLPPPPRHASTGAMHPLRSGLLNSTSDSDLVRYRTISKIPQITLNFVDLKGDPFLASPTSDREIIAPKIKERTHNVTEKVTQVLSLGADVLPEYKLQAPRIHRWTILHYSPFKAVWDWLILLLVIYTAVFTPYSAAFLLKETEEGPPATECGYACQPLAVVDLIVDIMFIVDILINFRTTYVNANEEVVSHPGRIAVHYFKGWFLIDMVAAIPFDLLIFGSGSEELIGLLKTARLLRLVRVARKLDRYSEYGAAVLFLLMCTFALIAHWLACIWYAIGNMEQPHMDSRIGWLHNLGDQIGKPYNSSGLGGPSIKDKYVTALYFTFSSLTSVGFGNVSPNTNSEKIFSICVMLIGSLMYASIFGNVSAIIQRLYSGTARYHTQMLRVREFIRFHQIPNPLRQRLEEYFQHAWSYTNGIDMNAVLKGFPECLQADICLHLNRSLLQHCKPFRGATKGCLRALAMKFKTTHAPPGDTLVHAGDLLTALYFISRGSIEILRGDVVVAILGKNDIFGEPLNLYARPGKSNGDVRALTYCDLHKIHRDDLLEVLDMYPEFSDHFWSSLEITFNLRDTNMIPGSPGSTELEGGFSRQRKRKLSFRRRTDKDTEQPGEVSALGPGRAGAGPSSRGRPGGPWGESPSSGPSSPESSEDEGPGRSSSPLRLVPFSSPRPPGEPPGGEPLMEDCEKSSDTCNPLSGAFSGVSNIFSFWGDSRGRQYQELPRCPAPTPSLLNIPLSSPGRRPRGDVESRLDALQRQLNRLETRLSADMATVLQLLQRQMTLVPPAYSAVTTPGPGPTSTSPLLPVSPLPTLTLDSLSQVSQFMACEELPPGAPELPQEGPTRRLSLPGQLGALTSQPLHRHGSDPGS

Row | SMILES | hERG current change (%, negative = inhibition) at 1uM
1 | O=C(CSc1nnnn1Cc1ccccc1)N1CCN(c2ccccc2)CC1 | 1.64%
2 | O=C(COc1ccc(-c2ccccc2)cc1)NNC(=O)Nc1ccccc1 | 13.1%
3 | CCn1cc(CNC(=O)CSc2nc(-c3ccc(OC)c(OC)c3)cc(C(F)(F)F)n2)c(C)n1 | 10.3%
4 | CC1CC(C)CN(C(=O)c2ccc(N3CC4CC(C3)c3cccc(=O)n3C4)c([N+](=O)[O-])c2)C1 (stereo not drawn) | 7.07%
5 | CCCCn1c(N)c(N(CCC(C)C)C(=O)c2ccc3c(c2)OCCO3)c(=O)[nH]c1=O | 15.5%
6 | COc1ccc(C2=NS(=O)(=O)N(C)C(C(=O)N3CCCCC3)=C2)cc1OC | 5.92%
7 | CC(=O)Nc1ccc(C(=O)NNC(=O)C2C3CCCCC32)cc1 (stereo not drawn) | -2.07%
8 | CC1(C)OC(C)(C)/C(=C\c2ccccc2[N+](=O)[O-])C1=O | 3.04%
9 | Cc1cc(OCC(=O)Nc2ccccn2)c2c(C)cc(=O)oc2c1 | 14.3%
10 | Oc1ccc(Br)cc1/C=N/Nc1ccccn1 | 15%
11 | O=[N+]([O-])c1ccc(OCc2nnc(-c3ccccc3)o2)cc1 | 11.4%
12 | Cc1ccc(C)c(NC(=O)C(OC(=O)c2ccc(C)s2)c2ccccc2)c1 (stereo not drawn) | 11.5%
13 | CCOC(=O)N1CCC(N2Cc3cccc(C(=O)N4CC(C)CC(C)C4)c3C2=O)CC1 (stereo not drawn) | 2.06%
14 | O=C(CSCc1ccccc1)N1CCN(c2ccc(F)cc2)CC1 | 2.03%
15 | CCn1c(C(C)NC(=O)c2ccccc2C)n[nH]c1=S (stereo not drawn) | 10.1%
16 | CCCN=Cc1ccc(O)cc1 | 13.8%
17 | CC(OC(=O)C1CC(=O)N(Cc2ccccc2)C1)C(=O)Nc1ccccc1[N+](=O)[O-] (stereo not drawn) | 3.73%
18 | N#CC1=C(N)OC2=C(C(=O)CCC2)C1c1ccncc1 (stereo not drawn) | 10.4%
19 | CCOC(=O)C(Cc1ccccc1)C(=O)Nc1ccc(N(CC)CC)cc1 (stereo not drawn) | 8.67%
20 | O=C(CCSc1nc2ccccc2o1)N1CCOCC1 | 8.39%
21 | O=C(CC(c1ccccc1)c1ccccc1)Nc1ccc(O)cc1 | 11.6%
22 | O=C(COc1cccc2ccccc12)NNC(=O)[C@@H]1CCCC[C@@H]1C(=O)O | 16.6%

Row | SMILES | hERG current change (%, negative = inhibition) at 1uM
23 | Cc1cc(NC(=O)c2cccc(S(=O)(=O)N3CCCCCC3)c2)no1 | 13.7%
24 | CC(=O)Nc1ccc(C(=O)N/N=C/c2ccncc2)cc1 | 9%
25 | Cc1cccc(C)c1NC(=O)C(c1cccs1)N(Cc1ccco1)C(=O)Cn1nnc2ccccc21 (stereo not drawn) | 13.5%
26 | O=C(Nc1sc2c(c1C(=O)NC1CC1)CCCCCC2)c1ccco1 | 3.37%
27 | CCCCCCSc1nc(O)c(C2OC(=O)c3c2ccc(OC)c3OC)c(=O)n1-c1ccccc1 (stereo not drawn) | 14.9%
28 | Cc1nn(-c2ccccc2)c(C)c1/C=C/C(=O)OCC(=O)N(C)C1CCS(=O)(=O)C1 (stereo not drawn) | 11.9%
29 | Cc1ccc(/C=C(\NC(=O)c2ccccc2)C(=O)NCC2CCCO2)o1 (stereo not drawn) | 6.53%
30 | COC(=O)C1C(O)=C(C=Nc2cccc3ccccc23)C(=O)CC1(C)C (stereo not drawn) | 5.11%
31 | O=C1OCCC1Sc1nc2ccccc2c(=O)n1-c1ccc(F)cc1 (stereo not drawn) | 10.7%
32 | O=C(NCCN1CCCCC1)c1cc(OCC(F)(F)F)ccc1OCC(F)(F)F | -17.2%
33 | COc1ccc(-n2c(SCC(=O)NCC3CCCO3)nc3c(c2=O)SC(C)C3)cc1 (stereo not drawn) | -0.154%
34 | NC(=O)c1nsc(C(=O)N(CC(=O)NCc2ccccc2)c2cccc(F)c2)c1N | 4.16%
35 | COC(=O)c1oc2ccc(Br)cc2c1NC(=O)CCCN1C(=O)c2ccccc2C1=O | 17.7%
36 | CC(OC(=O)c1ccc2c(c1)OCCO2)C(=O)c1ccccc1 (stereo not drawn) | 10.3%
37 | CCOC(=O)C1=CC[C@H]2c3c(c4ccccc4n3C)C(=O)C1N2S(=O)(=O)c1ccc(C)cc1 | 3.67%
38 | C=CCn1c(SCC(=O)N2CCCC2)nc2scc(-c3cccs3)c2c1=O | -10.2%
39 | O=C(Nc1nnc(SCc2ccc(F)cc2)s1)C1Cc2ccccc2CN1C(=O)c1ccco1 (stereo not drawn) | 6.13%
40 | Cc1nc2nc(CSc3ccc(Cl)cc3)cc(=O)n2[nH]1 | 12.6%
41 | Cc1cccc(NC(NC(=O)Cc2ccccc2)C(Cl)(Cl)Cl)c1 (stereo not drawn) | 6.24%
42 | COCC(C)NC(=O)c1ccc2nc(-c3ccccc3)c(-c3ccccc3)nc2c1 (stereo not drawn) | 10.3%
43 | C[C@H](C(=O)CC(=O)OC(C)(C)C)[C@H](O)c1ccc(C(F)(F)F)cc1 | 14%
44 | COc1ccc(C(CC(=O)N2CCCC(C)C2)c2c(O)cc(OC)cc2OC)cc1 (stereo not drawn) | 10.7%

Row | SMILES | hERG current change (%, negative = inhibition) at 1uM
45 | CC1CCCC(C)N1C(=O)c1cc(F)c(F)cc1Cl (stereo not drawn) | 4.42%
46 | CC(C)CCN1C(Nc2ccccc2)=NC[C@@H]1Cc1ccccc1 | -15%
47 | Cc1cc(C)n(-c2ccc(F)cc2)c(=O)c1C(=O)O | 4.43%
48 | COc1ccc(CCNC(=O)C(CC(C)C)NC(N)=O)cc1 (stereo not drawn) | 0.238%
49 | COc1ccc(NC(=O)C2CCCN2S(=O)(=O)c2ccc3c(c2)CCC(=O)N3)cc1 (stereo not drawn) | -12.9%
50 | COC(=O)c1cc(NS(=O)(=O)c2cccc(Cl)c2)ccc1N1CCOCC1 | 9.53%
51 | COc1ccc(Cc2[nH]n3c(=O)cc(C(C)C)nc3c2-c2ccccc2)cc1 | 13.4%
52 | COc1ccc(CN(CC2CCC(C(=O)O)CC2)C(=S)Nc2cccc(C)c2)cc1 (stereo not drawn) | 3.91%
53 | COc1ccc(C(=O)N/N=C(\C)CC(=O)Nc2ccccn2)cc1OC | 13.7%
54 | O=C(CSc1nc(-c2ccco2)cc(C(F)(F)F)n1)Nc1ccc(C(=O)N2CCCCC2)cc1 | 5.61%
55 | CC(C)CCNC(=O)CCn1nc(-c2ccc(Cl)cc2)ccc1=O | -5.4%
56 | CCOC(=O)C(C)(C)Sc1ncnc2nc[nH]c12 | 0.15%
57 | O=C(N/N=C/c1ccc(OC(=O)c2ccccc2)cc1)c1cccc(O)c1 | 10.4%
58 | CCc1cc(C(=O)OC)c(NC(=O)CCCC(=O)O)s1 | 13.7%
59 | Cc1ccn(CCC(=O)N2CCCC(CCC(=O)NCc3ccc(F)c(F)c3)C2)n1 (stereo not drawn) | 17%
60 | COc1ccc(CC(=O)Nc2oc(-c3ccccc3)c(-c3ccccc3)c2C#N)cc1OC | 11.9%
61 | COc1cc(Br)cc2cc(C(=O)OC3CCN(C)CC3)c(=O)oc12 | 2.25%
62 | CCOc1ccc(CNC(=O)NS(=O)(=O)c2ccc(OC)cc2)cc1 | 16.5%
63 | CCOC(=O)C(O)(c1ccc(NC(=O)c2ccc(Cl)c(Cl)c2)cc1)C(F)(F)F (stereo not drawn) | 14.5%
64 | NC(=O)c1cc2c3ccccc3ccn2c1-c1ccccc1 | 6.93%
65 | O=C(Nc1cccc(-c2cn3c(n2)SCC3)c1)c1ccc2ccccc2n1 | 16.8%
66 | COc1ccccc1-c1c(C)nn2c(N3CCC4(CC3)OCCO4)cc(C)nc12 | 11.4%

Row | SMILES | hERG current change (%, negative = inhibition) at 1uM
67 | CC(C)Sc1nc(N2CCOCC2)c2c(c1C#N)CC(C)(C)N(C)C2 | -5.18%
68 | O=C(CCc1ccccc1)Nc1cccc([N+](=O)[O-])c1 | 9.9%
69 | N#Cc1ccc(OCC(=O)n2cc(C(=O)c3cc(Cl)cc(Cl)c3O)cn2)cc1 | 8.88%
70 | CN(/N=C/c1ccc(N(C)C)cc1)C1=NS(=O)(=O)c2ccccc21 | 15%
71 | COc1ccc(C(=O)NCCC2=CCCCC2)cc1OC1CCN(C(C)C)CC1 | -7.41%
72 | COc1ccc(NC(=O)Cn2nc(C)c3ccccc3c2=O)cc1 | 10.5%
73 | Cc1cccc(OCCCC(=O)Nc2nc3ccccc3[nH]2)c1 | 6.69%
74 | CC1CCCCN1C(=O)/C(=C\c1ccccc1)c1ccccc1 (stereo not drawn) | 12%
75 | O=S(=O)(NC(=S)NC1CCCCC1)c1ccccc1 | 7.53%
76 | CC(=O)Nc1ccc(NC(=O)CSc2nnc(-c3ccc(NS(C)(=O)=O)cc3)n2C)cc1C | 2.17%
77 | COCCn1c(-c2ccc(SC)cc2)nc2c1c(=O)[nH]c(=O)n2CC(C)C | -3.11%
78 | O=C(c1ccc(Br)cc1)c1coc2ccc(O)cc12 | -0.508%
79 | COc1ccccc1OCC(=O)N1CCN(C(=O)c2ccco2)CC1 | 3.35%
80 | CN(C)c1cccc(C(=O)Nc2nc3ccccc3[nH]2)c1 | 14.7%
81 | N#C/C=C1\Sc2ccccc2C(=O)N1CC(=O)N1CCN(S(=O)(=O)c2ccccc2)CC1 | 0.0242%
82 | CCOC(=O)CCNC(=O)CCNC(=O)C(c1ccccc1)c1ccccc1 | 5.38%
83 | COC(=O)c1ccc(Cl)c(NC(C)=O)c1 | 9.23%
84 | CCNC(=O)NCCc1c[nH]c2ccc(Cl)cc12 | -5.81%
85 | Cc1ccc(C(=O)Oc2cccnc2)cc1[N+](=O)[O-] | 11%
86 | COc1ccc(N2CCN(CC(O)COCCOc3ccc(Br)cc3)CC2)cc1.Cl (stereo not drawn) | -34.6%
87 | CC(=O)N/C(=C\c1cccc([N+](=O)[O-])c1)C(=O)NC(C)C | 4.59%
